Results published in paper PMC4336329 (PLoS ONE, 2015).
Screen size: about 310,000 compounds; about 14,000 (4.5%) showed an effect of 50% or more. Effects have a minus sign here. The list shows a part of the results.

biological target: human ether-à-go-go-related gene (hERG) potassium channel (human, UniProt Q12809); assay: primary screen, population patch clamp on CHO cells stably expressing hERG
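Further: peak tail current of the secondary pulse compared with the same well before compound.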

Sequence of human ether-à-go-go-related gene (hERG) potassium channel (Q12809 whole entry, looked up): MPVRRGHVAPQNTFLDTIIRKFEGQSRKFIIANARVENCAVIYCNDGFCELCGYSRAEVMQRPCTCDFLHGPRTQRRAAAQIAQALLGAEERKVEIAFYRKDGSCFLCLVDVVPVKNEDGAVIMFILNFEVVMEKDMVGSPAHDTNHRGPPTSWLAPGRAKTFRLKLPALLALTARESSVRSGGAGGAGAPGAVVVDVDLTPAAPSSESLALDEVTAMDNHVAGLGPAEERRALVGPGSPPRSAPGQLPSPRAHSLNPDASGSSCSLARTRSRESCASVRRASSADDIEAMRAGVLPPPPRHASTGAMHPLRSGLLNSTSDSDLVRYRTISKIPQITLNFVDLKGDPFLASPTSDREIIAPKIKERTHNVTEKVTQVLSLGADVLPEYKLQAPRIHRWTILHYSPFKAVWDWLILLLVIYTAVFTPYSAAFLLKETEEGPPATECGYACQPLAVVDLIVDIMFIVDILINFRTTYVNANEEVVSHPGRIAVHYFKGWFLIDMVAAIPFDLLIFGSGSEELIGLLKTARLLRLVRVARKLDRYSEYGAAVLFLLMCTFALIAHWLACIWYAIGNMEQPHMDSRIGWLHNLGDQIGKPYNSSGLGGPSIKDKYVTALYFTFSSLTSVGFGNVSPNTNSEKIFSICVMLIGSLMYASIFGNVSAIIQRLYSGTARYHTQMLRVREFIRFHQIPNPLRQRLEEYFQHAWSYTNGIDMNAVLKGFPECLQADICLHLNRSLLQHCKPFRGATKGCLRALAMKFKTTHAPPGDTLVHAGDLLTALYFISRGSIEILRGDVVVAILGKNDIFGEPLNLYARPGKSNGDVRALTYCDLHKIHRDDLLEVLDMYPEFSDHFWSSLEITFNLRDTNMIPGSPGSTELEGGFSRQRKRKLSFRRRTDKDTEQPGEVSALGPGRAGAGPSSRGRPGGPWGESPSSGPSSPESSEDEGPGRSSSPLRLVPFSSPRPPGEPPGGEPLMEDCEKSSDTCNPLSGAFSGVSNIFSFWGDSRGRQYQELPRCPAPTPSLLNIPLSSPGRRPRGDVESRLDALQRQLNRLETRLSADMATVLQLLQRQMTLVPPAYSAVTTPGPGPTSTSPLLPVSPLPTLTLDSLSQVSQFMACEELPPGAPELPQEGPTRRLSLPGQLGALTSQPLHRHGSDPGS

Q: For `O=C1c2ccccc2-n2c1nc1ccccc1c2=O`, which “hERG current change (%, negative = inhibition) at 10uM” value is on record?
A: Its value is 6.4%.

Q: Which “hERG current change (%, negative = inhibition) at 10uM” value does the source give for `Br.CCCCCCn1c2c(c(=N)c3c1CCC3)CCC2` here?
A: The value was -76.5%.

Q: Which “hERG current change (%, negative = inhibition) at 10uM” value does the source give for `CCO[C@H]1OC(C(=O)O)=C[C@@H](C2CC2)[C@@H]1CCCO` here?
A: The value was 2.83%.

Q: How did the “hERG current change (%, negative = inhibition) at 10uM” value turn out when `CCCCn1nnnc1NCc1cccs1` was run?
A: The value was -6.33%.

Q: With `N#C/C(=C\c1ccc(N2CCOCC2)o1)c1ccccc1` as the molecule, how does the “hERG current change (%, negative = inhibition) at 10uM” value read?
A: Its value is 13.5%.

Q: How did the “hERG current change (%, negative = inhibition) at 10uM” value turn out when `O=C1S/C(=C/c2ccccc2)C(=O)N1CC(O)Cn1c2ccccc2c2ccccc21` (stereo not shown) was run?
A: The value was 13.5%.

Q: `O=C(O)CSCC(=O)N1CCN(S(=O)(=O)c2cc(Cl)cc(Cl)c2)CC1` was tested. Which “hERG current change (%, negative = inhibition) at 10uM” value did it give?
A: The value was 14.8%.

Q: For `O=c1c2ccccc2nc(COc2ccccc2)n1/N=C/c1c[nH]c2ccccc12`, which “hERG current change (%, negative = inhibition) at 10uM” value is on record?
A: Its value is 14.2%.

Q: `COc1ccc2nc(NC(=O)c3ccc(Br)s3)sc2c1` was tested. Which “hERG current change (%, negative = inhibition) at 10uM” value did it give?
A: Its value is 15.9%.

Q: With `CCN1C=C(C(=O)OC)C(c2cccc(OC)c2OC)C(C(=O)OC)=C1` as the molecule, how does the “hERG current change (%, negative = inhibition) at 10uM” value read?
A: The value was 7.46%.

Q: How did the “hERG current change (%, negative = inhibition) at 10uM” value turn out when `COc1cc(NC(=O)CN2CCC(C)CC2)c(C)cc1[N+](=O)[O-]` was run?
A: Its value is 0.236%.

Q: `CN(C)c1ccnc(-n2cccc2/C=N/OCc2ccc(F)cc2Cl)c1C#N` was tested. Which “hERG current change (%, negative = inhibition) at 10uM” value did it give?
A: The value was -9.67%.

Q: Which “hERG current change (%, negative = inhibition) at 10uM” value does the source give for `COC(=O)c1[nH]c2cccc(Cl)c2c1NC(=O)CN1CCCCC1C` (stereo not shown) here?
A: The value was -3.86%.

Q: For `Cc1ccc(CC2CC(=O)N(C(Cc3ccccc3)C(=O)O)C2=O)cc1` (stereo not shown), which “hERG current change (%, negative = inhibition) at 10uM” value is on record?
A: Its value is 13.9%.

Q: With `CCOc1ccc(CCNC(=O)COC(=O)/C=C/c2ccco2)cc1OCC` as the molecule, how does the “hERG current change (%, negative = inhibition) at 10uM” value read?
A: Its value is 12.9%.

Q: For `CC(C)Cc1nnc(NC(=O)CCC(=O)N2CCC(C)CC2)s1`, which “hERG current change (%, negative = inhibition) at 10uM” value is on record?
A: Its value is 0.442%.

Q: How did the “hERG current change (%, negative = inhibition) at 10uM” value turn out when `COC(=O)c1sccc1NC(=O)Nc1ccc(OC)cc1` was run?
A: The value was 4.01%.

Q: With `CC1CCN(C(=O)CSCc2ccc(Cl)cc2)CC1` as the molecule, how does the “hERG current change (%, negative = inhibition) at 10uM” value read?
A: Its value is -8.41%.

Q: Which “hERG current change (%, negative = inhibition) at 10uM” value does the source give for `CCOC(=O)C1CCN(C(=O)c2ccc(OCC(=O)Nc3cccc(C(F)(F)F)c3)cc2)CC1` here?
A: Its value is -55.5%.

Q: Which “hERG current change (%, negative = inhibition) at 10uM” value does the source give for `CCOC(=O)C1Cc2c([nH]c3ccccc23)C(C)N1.Cl` (stereo not shown) here?
A: Its value is 9.14%.

Q: `Cc1cc[n+](-c2[nH]c(=O)sc2/C=N/NC([S-])=Nc2ccccc2)cc1` was tested. Which “hERG current change (%, negative = inhibition) at 10uM” value did it give?
A: Its value is 1.87%.

Q: Which “hERG current change (%, negative = inhibition) at 10uM” value does the source give for `Cc1cc(=O)[nH]c(SCC(=O)N2CCCCC2)n1` here?
A: Its value is 11.2%.

Q: For `CC(=O)Nc1ccc(Cl)c(C(N)=O)c1`, which “hERG current change (%, negative = inhibition) at 10uM” value is on record?
A: The value was 9.7%.

Q: Which “hERG current change (%, negative = inhibition) at 10uM” value does the source give for `N#Cc1cc2c(=O)n3ccccc3nc2n(CCCN2CCOCC2)c1=O` here?
A: The value was -24.3%.

Q: `COc1ccc(C(=O)c2c3ccc(C(F)(F)F)cc3[n+]([O-])n2CCC[NH3+])cc1.[Cl-]` was tested. Which “hERG current change (%, negative = inhibition) at 10uM” value did it give?
A: Its value is -73.3%.
